Measurements from the supplement of paper PMC8047034.
Structures can show the parent of a compound that is named as a salt. Some of the results follow. Most values come without repeats; read them as rough.

Each compound was assayed on Ov4Carbo (assay: log2 surviving fraction (library drug vs vehicle, or drug + carboplatin vs carboplatin alone; relative to plate median); ovarian cancer lines: OVCAR4 is platinum-sensitive and Ov4Carbo platinum-resistant; higher = more cell survival). Conditions: library drug concentration 10 µM; 7 days; carboplatin co-treatment 5 µM.
`O=S(=O)(O)CCS` [Mesna (Uromitexan, Mesnex)] gave a log2 surviving fraction of 0.462. With `CCC[C@@H]1C[C@@H](C(=O)N[C@@H]([C@H]2O[C@H](SC)[C@H](O)[C@@H](O)[C@H]2O)[C@H](C)Cl)N(C)C1` [Clindamycin] the log2 surviving fraction was 0.103. `O=C(O[C@H]1C[C@H]2CC[C@@H](C1)[N+]21CCCC1)C(O)(c1ccccc1)c1ccccc1` [Trospium chloride (Sanctura)] was tested, and the log2 surviving fraction was 0.155. With `CCCCCCOC(=O)NC(=N)c1ccc(NCc2nc3cc(C(=O)N(CCC(=O)OCC)c4ccccn4)ccc3n2C)cc1` [BIBR-1048 (Dabigatran)] the log2 surviving fraction was 0.583. `Clc1ccc(COC(Cn2ccnc2)c2ccc(Cl)cc2Cl)c(Cl)c1` (centres undefined) [Miconazole nitrate] showed a log2 surviving fraction of -1.05. In the case of `CCOC(=O)[C@H](CCc1ccccc1)N[C@H]1CCc2ccccc2N(CC(=O)O)C1=O` [Benazepril hydrochloride], the log2 surviving fraction is reported as 0.983. With `COc1ccc(CNc2nc(N3CCC[C@H]3CO)ncc2C(=O)NCc2ncccn2)cc1Cl` [Avanafil] the log2 surviving fraction was -0.168. `NCCNCCNCCNCCN` [Tetraethylenepentamine 5HCl] gave a log2 surviving fraction of -2. Work on `Nc1[nH]cnc2ncnc1-2` [Adenine hydrochloride] yielded a log2 surviving fraction of -0.0139. `Nc1nc(N)nc(NC2CC2)n1` [Cyromazine] was tested, and the log2 surviving fraction was 0.707. `Cc1cc(NS(=O)(=O)c2ccc(N)cc2)no1` [Sulfamethoxazole] showed a log2 surviving fraction of -0.00576. With `CCn1nc(C(=O)O)c(=O)c2cc3c(cc21)OCO3` [Cinoxacin] the log2 surviving fraction was 0.0234. `CCN(CC)C(=O)C1(c2ccccc2)CC1CN` (centres undefined) [Milnacipran HCl] was tested, and the log2 surviving fraction was -0.765. Work on `Clc1ccc(C(Cn2ccnc2)OCc2c(Cl)cccc2Cl)c(Cl)c1` (centres undefined) [Isoconazole nitrate (Travogen)] yielded a log2 surviving fraction of -1.38. For `NCCCC[C@H](N[C@@H](CCc1ccccc1)C(=O)O)C(=O)N1CCC[C@H]1C(=O)O` [Lisinopril (Zestril)], the log2 surviving fraction was 0.777. In the case of `CN1CCC[C@H]1c1cccnc1` [Nicotine Ditartrate], the log2 surviving fraction is reported as 1.43. Compound `CCN(C)C(=O)Oc1cccc([C@H](C)N(C)C)c1` [Rivastigmine tartrate (Exelon)] has a log2 surviving fraction of -0.0281. With `COc1ccccc1OCC(O)COC(N)=O` (centres undefined) [Methocarbamol (Robaxin)] the log2 surviving fraction was 0.313. `C[C@]12CC[C@@H]3c4ccc(O)cc4CC[C@H]3[C@@H]1CC[C@@H]2O` [Estradiol] gave a log2 surviving fraction of -0.233.
